Data: publication PMC4336329 (PLoS ONE, 2015)
Screen size: about 310,000 compounds; about 14,000 (4.5%) showed an effect of 50% or more. The effect is printed as a negative number. This is one part of the list.

target: human ether-à-go-go-related gene (hERG) potassium channel (human, UniProt Q12809); assay: primary screen, population patch clamp on CHO cells stably expressing hERG
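Note: peak tail current of the secondary pulse compared with the same well before compound.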

human ether-à-go-go-related gene (hERG) potassium channel, sequence (Q12809 whole entry, looked up): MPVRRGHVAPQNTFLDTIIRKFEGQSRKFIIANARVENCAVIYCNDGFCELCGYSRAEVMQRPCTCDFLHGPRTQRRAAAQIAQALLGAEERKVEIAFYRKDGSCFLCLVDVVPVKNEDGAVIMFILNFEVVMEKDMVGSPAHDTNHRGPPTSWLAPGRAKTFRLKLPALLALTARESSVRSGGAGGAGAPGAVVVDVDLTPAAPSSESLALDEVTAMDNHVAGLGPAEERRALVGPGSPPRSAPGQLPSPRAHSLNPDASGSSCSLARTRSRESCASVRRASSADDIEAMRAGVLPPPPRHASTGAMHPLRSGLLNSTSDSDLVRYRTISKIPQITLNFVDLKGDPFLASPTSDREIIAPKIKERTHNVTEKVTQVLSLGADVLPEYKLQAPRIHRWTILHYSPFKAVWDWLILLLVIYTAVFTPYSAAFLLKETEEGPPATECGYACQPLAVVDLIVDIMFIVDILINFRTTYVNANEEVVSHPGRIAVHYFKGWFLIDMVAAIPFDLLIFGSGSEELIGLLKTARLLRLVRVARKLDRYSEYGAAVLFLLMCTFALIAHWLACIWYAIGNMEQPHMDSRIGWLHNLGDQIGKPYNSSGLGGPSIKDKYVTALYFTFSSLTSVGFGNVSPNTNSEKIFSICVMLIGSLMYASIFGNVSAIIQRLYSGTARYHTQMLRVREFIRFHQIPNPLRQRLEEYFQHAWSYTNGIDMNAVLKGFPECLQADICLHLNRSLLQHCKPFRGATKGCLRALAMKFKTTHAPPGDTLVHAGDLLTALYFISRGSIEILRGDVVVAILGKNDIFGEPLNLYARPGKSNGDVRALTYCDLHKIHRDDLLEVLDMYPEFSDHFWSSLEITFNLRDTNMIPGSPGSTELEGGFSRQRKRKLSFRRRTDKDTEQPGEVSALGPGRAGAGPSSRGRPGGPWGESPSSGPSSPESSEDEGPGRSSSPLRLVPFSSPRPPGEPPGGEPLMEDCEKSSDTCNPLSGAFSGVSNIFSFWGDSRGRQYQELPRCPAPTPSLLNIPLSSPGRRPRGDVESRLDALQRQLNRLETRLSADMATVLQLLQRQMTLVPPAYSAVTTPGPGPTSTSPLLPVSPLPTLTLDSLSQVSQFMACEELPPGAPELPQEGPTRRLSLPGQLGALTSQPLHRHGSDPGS

Row | SMILES | hERG current change (%, negative = inhibition) at 10uM [%]
1 | O=C1c2ccccc2NC(c2ccccn2)N1NS(=O)(=O)c1ccccc1 (stereo not shown) | 3.72
2 | CC(=O)O/N=C(\N)c1cnn2c(C(F)(F)F)cc(C(F)(F)F)nc12 | 14.9
3 | CC(CN1CCCC1)OC(=O)c1ccc(F)cc1.Cl (stereo not shown) | -10.1
4 | CCCOc1ccc(Cc2nn3c(=O)/c(=C/c4ccco4)sc3nc2=O)cc1 | 22.8
5 | CCOC(=O)N1CCN(C(=O)C(CC(C)C)NS(=O)(=O)c2ccc(C)cc2)CC1 (stereo not shown) | -4.14
6 | COc1ccccc1-n1c(SCC(=O)Nc2ccc(Br)cc2)nc(O)cc1=O | 16.4
7 | C/C(=N\NC(N)=O)c1ccc(-n2ccnc2)cc1 | 10.9
8 | Cc1cccnc1NC(=S)NCCc1ccccc1 | -4.2
9 | CCOC(=O)c1ccc(Nc2cc(C)nc(N3CCOCC3)n2)cc1 | -2.79
10 | COc1cccc(NC(=S)N(Cc2ccc(C)cc2)Cc2ccccn2)c1 | -30.2
11 | C=C(C)COc1ccc(-c2[nH]ncc2-c2ccc(Br)cc2)c(O)c1 | 8.06
12 | O=C(CN1CCN(S(=O)(=O)c2ccc(F)cc2)CC1)c1ccc(O)c(O)c1 | -34.9
13 | COc1ccc(NC(=O)CCCC(=O)OCC(F)(F)C(F)F)cc1 | -30.7
14 | COc1ccc2nc(NC(=O)CN3C(=O)NC4(CCCC4)C3=O)sc2c1 | 2.25
15 | CCOc1ccccc1NC(=O)c1cc(-c2ccccn2)nc2ccccc12 | -23
16 | CCN(C(=O)COC(=O)c1ccc2[nH]c3c(c2c1)CCCC3)C1CCS(=O)(=O)C1 (stereo not shown) | -8.35
17 | O=C(O)/C=C/C(=O)N1CCN(S(=O)(=O)c2cc(C(F)(F)F)ccc2Cl)CC1 | 2.71
18 | COc1ccc([N+](=O)[O-])cc1NC(=O)COC(=O)Cc1cc(OC)c(OC)c(OC)c1 | -17.8
19 | Cn1c(=O)[nH]c(=O)c2c1nc(NCc1ccccc1)n2Cc1ccc(F)cc1 | 10.2
20 | CC(=O)c1cccc(OCC(O)CN2CCN(S(=O)(=O)c3c(F)cccc3F)CC2)c1.O=C(O)C(=O)O (stereo not shown) | -31
21 | Cc1cc(C)n(Cc2ccc(C(=O)Nc3cccc(Br)c3)o2)n1 | -7.78
22 | COc1ccc(/C=C2\SC(=S)N(CC3CCCO3)C2=O)cc1 (stereo not shown) | 14.2
23 | CCOc1cc(C=O)ccc1OCCn1c([N+](=O)[O-])cnc1C | 3.96
24 | CCOC(=O)c1cn(CC(=O)Nc2ccc(CC)cc2)nn1 | 7.76
25 | O=C(CCC1CCCC1)Nc1ccon1 | 12.2
26 | O=C(c1cc(C2CC2)on1)N1CCN(C(c2ccccc2)c2ccccc2)CC1 | 16.5
27 | O=C1C(Oc2ccccc2)C(c2ccc3c(c2)OCO3)N1CCc1ccc(F)cc1 (stereo not shown) | 13.5
28 | CCOc1ccccc1N1CCN(C(=O)/C=C/c2cccc([N+](=O)[O-])c2)CC1 | -38.9

Row | SMILES | hERG current change (%, negative = inhibition) at 10uM [%]
29 | COc1ccc(OC)c(C2=NNC(=NCc3ccc4c(c3)OCO4)SC2)c1 | -15
30 | CCOc1ccc(NCc2nnc(SCC(=O)Nc3cc(C)on3)n2-c2ccccc2OC)cc1 | 1.71
31 | CCOC(=O)c1ccccc1NC(=O)COC(=O)C1=COCCO1 | 4.78
32 | CN1CCN(C(=O)/C(=C\c2cccc([N+](=O)[O-])c2)NC(=O)c2cccs2)CC1 | -25.4
33 | Cc1ccc(-n2nc(CN3CCOCC3)c(-c3ccccc3)c2N)c(C)c1 | -9.78
34 | Cn1c(SCC(=O)C(C)(C)C)nnc1-c1ccncc1 | -3.14
35 | COc1ccc(N2CCN(C(=O)NCc3ccc(OC)c(OC)c3)CC2)cc1 | 19.2
36 | COc1ccc(N2C(=O)CC(NCc3ccncc3)C2=O)cc1 (stereo not shown) | 16.7
37 | COc1ccc(N(CC(=O)Nc2cc(C)ccc2C)S(=O)(=O)c2c(C)[nH]c(=O)[nH]c2=O)cc1 | 16.2
38 | Cc1ccc(C(=O)NC2CCCN(c3ccc(C(F)(F)F)cn3)C2)cn1 (stereo not shown) | -2.75
39 | Fc1ccc(/C=N/NC2=Nc3cccc4cccc2c34)cc1 | 36.8
40 | Cc1csc(SCC(=O)Nc2ccccc2)n1 | 30.5
41 | CCCCCCc1ccc(OCC(=O)OC)cc1OCC(=O)OC | 14.1
42 | CCn1c(SCC(=O)O)nc2sc3c(c2c1=O)CCC3 | -3.55
43 | Cc1cc(C)cc(NC(=O)COc2coc(CN3CCc4ccccc4C3)cc2=O)c1 | 1.13
44 | CCOc1ccc(/C=C2/Sc3ccc(C(=O)N4CCOCC4)cc3N(C)C2=O)cc1OC | -18.5
45 | COc1ccc(S(=O)(=O)N2CCCCCC2)cc1C(=O)N(C)Cc1cccc(OC)c1OC | -13.8
46 | Cc1cccc(OC(C)C(=O)N/N=C\c2ccncc2)c1 (stereo not shown) | -6.27
47 | CCC(C)NC(=O)CCc1c(C)nc2nc(-c3cc(OC)cc(OC)c3)nn2c1C (stereo not shown) | -26.2
48 | Cc1cccc(C)c1NC(=O)NN1C(C)CCCC1C (stereo not shown) | 22.3
49 | Cc1ccccc1NC(=O)Nc1ccc2c(c1)OCO2 | 1.01
50 | O=C(Nc1nc(-c2cccc([N+](=O)[O-])c2)cs1)C(c1ccccc1)c1ccccc1 | 12
51 | NC(=O)c1ccc(Oc2ccc(-c3nnco3)cc2)c([N+](=O)[O-])c1 | 1.84
52 | CCN1CCN(C(=O)c2cc(=O)c3cc(C)ccc3o2)CC1 | -21.8
53 | COc1ccc2nc(N(Cc3ccccc3)C(=O)CCNC(C)=O)sc2c1 | -8.54
54 | COc1ccccc1Nc1nc2c(C)cccc2cc1C#N | -2.92
55 | Cc1ccc(S(=O)(=O)c2cc3c(=O)n4cccc(C)c4nc3n(CC3CCCO3)c2=N)cc1C (stereo not shown) | 2.35
